From US20050095240A1, “NaCT as a target for lifespan expansion and weight reduction” (Medical College of Georgia Research, priority 2002, published 2005) come the findings set out here.

For one experiment, the target named is drIndy (Drosophila melanogaster, UniProt Q9VVT2).
Chain of drIndy (Q9VVT2 19-590): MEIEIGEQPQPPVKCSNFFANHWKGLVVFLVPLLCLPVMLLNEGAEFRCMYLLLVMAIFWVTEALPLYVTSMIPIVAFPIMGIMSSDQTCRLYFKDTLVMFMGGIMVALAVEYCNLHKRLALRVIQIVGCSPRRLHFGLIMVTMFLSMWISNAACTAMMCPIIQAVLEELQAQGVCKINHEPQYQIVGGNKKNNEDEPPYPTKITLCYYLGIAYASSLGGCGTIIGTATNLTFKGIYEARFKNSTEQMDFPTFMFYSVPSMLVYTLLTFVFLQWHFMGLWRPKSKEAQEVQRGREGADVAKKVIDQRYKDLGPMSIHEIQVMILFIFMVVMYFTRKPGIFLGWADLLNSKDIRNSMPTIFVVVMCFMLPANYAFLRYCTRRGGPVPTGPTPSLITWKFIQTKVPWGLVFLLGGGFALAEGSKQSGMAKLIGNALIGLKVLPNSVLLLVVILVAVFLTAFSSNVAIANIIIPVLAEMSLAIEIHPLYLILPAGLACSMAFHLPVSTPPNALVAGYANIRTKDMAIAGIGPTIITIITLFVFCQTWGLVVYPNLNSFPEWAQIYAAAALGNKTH
Conditions: not given
On to `[Cl-].[K+]` [KCl], for which the “Fold Increase of succinate uptake (drIndy vs vector)” value is on record as 15.9 fold.

Still in this experiment, the particulars now being: succinate 40 nM; drIndy cDNA-transfected HRPE cells; indicated salt 140 mM or mannitol 280 mM; pH 7.5.
As to `OC[C@@H](O)[C@@H](O)[C@H](O)[C@H](O)CO` [Mannitol], the “Succinate uptake, drIndy” value is 83.3 ± 7.1 fmol/10^6 cells per min.
`[Cl-].[Na+]` [NaCl]: the “Succinate uptake, drIndy” value was found to be 118.0 ± 7.8 fmol/10^6 cells per min.
The same measure, in the same setting: for `O=C([O-])[C@H](O)[C@@H](O)[C@H](O)[C@H](O)CO.[Na+]` [Sodium gluconate] the value was 76.6 ± 2.6 fmol/10^6 cells per min; for `[Cl-].[Li+]` [LiCl], 122.3 ± 4.3 fmol/10^6 cells per min; for `CNC[C@H](O)[C@@H](O)[C@H](O)[C@H](O)CO.Cl` [NMDG chloride, N-methyl-D-glucamine chloride], 84.7 ± 10.0 fmol/10^6 cells per min.
